Results published in PubChem BioAssay AID488969 (Vanderbilt High Throughput Screening Facility, 2010).
In all, about 110,000 compounds were measured (“z-score”: median about -0.1, highest 2% from about 2 on). This is one part of the list. Active and inactive are the calls of the source.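 Rule for the calls: active = z-score in the third read window above 3 or below -3; inactive = the rest.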

Target: Metabotropic glutamate receptor 8 (Rattus norvegicus) (UniProt P70579)
Assay: rat mGluR8 modulators via GIRK flux, primary screen, cell-based, thallium flux, HTS (AID 488969)
Details: HEK293 rat mGluR8, GIRK (G protein-gated inwardly rectifying potassium channel) thallium flux, FluoZin2; at 10 µM; stronger effect = higher value; submaximal glutamate (EC20) added with thallium

UniProt P70579, sequence (P70579 whole entry, looked up): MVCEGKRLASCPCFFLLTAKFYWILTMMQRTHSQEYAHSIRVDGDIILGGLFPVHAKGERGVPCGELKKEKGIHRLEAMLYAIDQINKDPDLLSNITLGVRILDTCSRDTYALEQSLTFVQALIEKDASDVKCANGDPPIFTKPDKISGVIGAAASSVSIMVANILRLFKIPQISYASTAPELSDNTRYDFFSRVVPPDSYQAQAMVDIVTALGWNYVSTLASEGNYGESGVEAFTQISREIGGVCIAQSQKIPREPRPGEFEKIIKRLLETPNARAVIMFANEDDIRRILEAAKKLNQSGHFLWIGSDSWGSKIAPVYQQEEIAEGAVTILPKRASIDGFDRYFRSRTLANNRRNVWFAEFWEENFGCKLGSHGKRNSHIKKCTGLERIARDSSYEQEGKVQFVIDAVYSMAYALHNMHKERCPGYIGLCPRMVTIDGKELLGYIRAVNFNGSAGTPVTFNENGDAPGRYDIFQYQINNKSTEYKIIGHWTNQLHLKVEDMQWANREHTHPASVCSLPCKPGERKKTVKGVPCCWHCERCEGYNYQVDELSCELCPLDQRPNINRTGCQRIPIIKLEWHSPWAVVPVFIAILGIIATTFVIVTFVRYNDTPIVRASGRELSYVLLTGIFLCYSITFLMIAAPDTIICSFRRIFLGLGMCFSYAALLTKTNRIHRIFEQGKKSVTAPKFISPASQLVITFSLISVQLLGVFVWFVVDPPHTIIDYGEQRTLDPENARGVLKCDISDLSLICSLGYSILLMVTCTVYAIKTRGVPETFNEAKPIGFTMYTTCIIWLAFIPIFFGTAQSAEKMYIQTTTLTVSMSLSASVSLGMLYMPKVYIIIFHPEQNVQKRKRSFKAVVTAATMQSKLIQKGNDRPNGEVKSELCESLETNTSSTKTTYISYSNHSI

Structure (SMILES) | z-score
CC(C)(C)c1ccc(C(=O)N2CCNCC2)cc1 | -1.41
Cc1ccc(CNC(=O)c2ccc(N3CCc4ccccc43)c([N+](=O)[O-])c2)cc1 | 0.00045
CC(C)NC(=O)c1ccc(-c2cc(C(F)(F)F)ccc2Cl)o1 | -0.101
COc1ccc(-c2noc(CCC(=O)N(C)c3cccc(C)c3)n2)cc1 | -0.987
OC1CCCN(c2c3c(nc4cc(-c5cccc(Cl)c5)nn24)CCC3)C1 (stereo unspecified) | -0.591
O=C(CCC(=O)c1cccs1)c1cccs1 | -0.0451
Cc1nc([N+](=O)[O-])nn1C12CC3CC(CC(Br)(C3)C1)C2 | -0.0526
C=CCNc1sc(C(=O)C2CC2)c(N)c1C#N | -0.389
O=C(CCC(=O)c1ccc(F)cc1)Nc1cccc(S(=O)(=O)Nc2cccc(Cl)c2)c1 | -0.116
CC1=C(C(=O)O)N2C(=O)C(NC(=O)c3nn(C)cc3Cl)C2SC1 (stereo unspecified) | -0.314
O=c1c2c(n3cnnc3n1C1CCCCC1)-c1ccccc1CC21CCCCC1 | -0.288
Brc1ccc(-c2nc(-c3cccnc3)no2)o1 | -0.481
CCCOC(=O)c1ccc(NC(=O)CCOc2ccccc2)cc1 | -0.163
O=C(Cc1c(Cl)cccc1Cl)OCC(=O)N1CCc2ccccc2C1 | -0.602
CCC(=O)N(Cc1ccc(C)cc1)Cc1cc2cc3c(cc2[nH]c1=O)OCO3 | -0.276
O=C(NNS(=O)(=O)c1ccccc1)c1cccs1 | -0.0511

Structure (SMILES) | z-score
O=C(CSCc1cccc(Cl)c1)N1CCN(Cc2ccc3c(c2)OCO3)CC1 | 0.923
CCOCC(=O)Nc1nc2ccc(OC)cc2s1 | 0.28
CCCCC(=O)Nc1nn(CC(C)C)c2nc3ccccc3cc12 | -0.533
CCOC(=O)c1sc(NCC2CCCO2)nc1C (stereo unspecified) | 0.07
CCCS(=O)(=O)N1CCCC(C(=O)NCCCOCC)C1 (stereo unspecified) | 0.147
COc1ccc(/C=C/C(=O)NC(=S)NN2CCCCC2c2cccnc2)cc1OC (stereo unspecified) | 0.0576
CCOC(=O)C(CC)n1cnc2sc3c(c2c1=O)CCC3 (stereo unspecified) | -0.321
COc1ccc(-c2nnc(NC(=O)c3ccc(F)cc3)o2)cc1 | active: 5.46
CC(=O)Oc1cccc(N2C(=O)C3C4C=CC(C4=C(C)C)C3C2=O)c1 (stereo unspecified) | -1.01
O=C(COC(=O)c1ccc(S(=O)(=O)N2CCOCC2)cc1)Nc1nc(-c2ccccc2)cs1 | 0.333
CCOCCn1c(CN(Cc2ccccc2)Cc2ccccc2)nc2c1c(=O)n(C)c(=O)n2C | 0.389
Cn1c(Cc2ccccc2)nnc1SCC(=O)N1CCN(c2ccccc2)CC1 | 0.344
CCOC(=O)c1ccc(N2Cc3ccccc3C2=N)cc1 | -0.161
COc1ccc(NC(=O)C(c2cc3c(cc2[N+](=O)[O-])OCO3)N(C)c2ccccc2)cc1 (stereo unspecified) | -0.662
Cc1ccc(C(=O)/C=C/c2c[nH]c3ccccc23)cc1 | -0.133
